# Experimental data taken from PubChem BioAssay AID1347073 (National Center for Advancing Translational Sciences (NCATS), 2019).
# In all, about 45,000 compounds went through this assay and about 200 (0.44%) were called active. Inconclusive results, whose numbers are uncertain, are shown with a selection of clear calls. The call rests on the fitted dose curve; in most records, active means well fitted activation curve with a large enough effect; inconclusive means small, poorly fitted or top-dose-only effect; inactive means no such curve, though single readings can be large or run the other way. A potency beside an inconclusive call is a rough fit, not a confirmed value.
# Experiment: qHTS of TDP-43 Inhibitors: NCGC Sytravon Library Screen; further: nearly all actives have a fitted effect of over 55% in size; on growth rescue (activation): 0% is about no effect
# Settings: yeast TDP-43 toxicity rescue, BacTiter-Glo growth, 24 h; growth rescue (activation): at 46.1 µM (top of the series)
# Summary of the method: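 TDP-43-expressing yeast, pregrown in raffinose, seeded at OD600 0.02 in galactose medium with compound for 24 hr at 30 deg C. Growth read by BacTiter-Glo luminescence, so rescue of toxicity appears as activation.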
# Potency means the concentration at half of the fitted maximal effect; tags describe the fitted curve by direction and shape.
Structure (SMILES),Potency,growth rescue (activation)
COc1ccc(C(=O)Nc2ccc([N+](=O)[O-])cn2)cc1OC,"inconclusive: 10 µM [activator, single point]",
CC(=O)N1C(C)c2ccccc2C(C)(C)CC12CCCCC2 (configuration not stated),"inconclusive: 22.4 µM [activator, single point]",
Cc1ccc(C)c(OCc2cc(C(=O)N3CCN(c4cnccn4)CC3)no2)c1,"inconclusive: 14.1 µM [activator, partial curve, poor fit]",
O=C(COc1ccccc1-c1ccccc1)NCc1ccco1,"inconclusive: 11.2 µM [activator, single point]",
OC1CCC(Nc2ccn3nc(-c4cccc(OCc5ccccc5)c4)cc3n2)CC1 (configuration not stated),"inconclusive: 35.5 µM [activator, single point]",
CC1(c2ccccc2)NC(=O)N(CC(=O)N(c2ccccc2)C2CCS(=O)(=O)C2)C1=O (configuration not stated),inactive,
COc1ccc(/C=N/Nc2ccc(C(=O)O)cc2)cc1Br,"inconclusive: 3.16 µM [activator, partial curve, poor fit]",
CCN1C(=O)CS/C1=N\S(=O)(=O)c1ccccc1,"inconclusive: 35.5 µM [activator, single point]",
CCc1ccc2c(c1)NC(=O)C2(C)Cc1ccc(Cl)s1 (configuration not stated),"inconclusive: 20 µM [activator, partial curve, poor fit]",
CC(C)OC(=O)c1c(NC(=O)c2cccc(C(F)(F)F)c2)sc2c1CCCC2,inactive,
ON/C=N/C(=S)Nc1ncc(C(F)(F)F)cc1Cl,"inconclusive: 14.1 µM [activator, partial curve, poor fit]",
CCn1c(SCC(=O)NNC(=O)c2ccc(OC)cc2)nnc1C1CC1,inactive,
COCCN(C(=S)Nc1ccc(C)cc1)C(C)c1ccco1 (configuration not stated),"inconclusive: 12.6 µM [activator, single point]",
Cc1ccc(C(=O)NC(=S)Nc2ccccc2N2CCCC2)cc1[N+](=O)[O-],"inconclusive: 22.4 µM [activator, single point]",
Cc1cc(C(=O)N/N=C/c2cc(Cl)cc([N+](=O)[O-])c2O)c2ccccc2n1,"inconclusive: 11.2 µM [activator, single point]",
CC(C)Oc1cc(F)ccc1-c1cc(C(=O)NC2CCCCC2)[nH]n1,,inconclusive: 54.2% [activator]
N#Cc1ccccc1COc1cccc2c1CCCC2O (configuration not stated),"inconclusive: 4.47 µM [activator, partial curve, poor fit]",
O=C(/C(C=Nc1cc2c(oc1=O)CCCC2=O)=C(\O)c1ccccc1)c1ccccc1,"inconclusive: 14.1 µM [activator, partial curve, poor fit]",
CCc1cc(C(=O)N2CCN(c3ccccc3OC)CC2)sc1C,"inconclusive: 15.8 µM [activator, single point]",
N/C(=N\OC(=O)Cc1ccc([N+](=O)[O-])cc1)c1ccc([N+](=O)[O-])cc1,inactive,
Cc1cc(N2CCCCCC2)nc(-c2ccccc2O)n1,"inconclusive: 28.2 µM [activator, single point]",

Structure (SMILES),Potency,growth rescue (activation)
CC(OC(=O)C1CCN(S(=O)(=O)c2ccc(Cl)cc2)CC1)C(=O)N1CCc2ccccc21 (configuration not stated),"inconclusive: 7.08 µM [activator, partial curve]",
O=C1c2ccccc2C(Nc2ccccc2)N1Cc1ccc2c(c1)OCO2 (configuration not stated),"inconclusive: 35.5 µM [activator, single point]",
OC(c1ccc(F)c(F)c1)c1nc(-c2csc3ccccc23)cs1 (configuration not stated),,inconclusive: 40% [activator]
O=C(Nc1ccc2c(c1)OCO2)c1cc(C2CCCN(C(=O)C3CCCCC3)C2)on1 (configuration not stated),"inconclusive: 14.1 µM [activator, single point]",
Cc1c(CC(=O)O)c(=O)oc2cc3oc4c(c3cc12)CCCC4,"inconclusive: 25.1 µM [activator, single point]",
Cc1ccc(COc2ccc(/C=N/O)cc2)cc1,"inconclusive: 8.91 µM [activator, partial curve, poor fit]",
O=C(c1csc2c1CCCC2)n1cccn1,"inconclusive: 17.8 µM [activator, single point]",
COc1cc(/C=C2\C(=O)ON=C2c2ccccc2)cc(Br)c1O,"inconclusive: 35.5 µM [activator, single point]",
O=[N+]([O-])c1ccc(Cl)cc1Sc1ccccn1,"inconclusive: 22.4 µM [activator, partial curve, poor fit]",
CCN(CC)S(=O)(=O)c1cccc(NC(=O)c2cccc(S(=O)(=O)N3CCCC3)c2)c1,inactive,
COC(=O)/N=C(/Cc1ccc(OC)cc1)c1ccc(OC)cc1,"inconclusive: 12.6 µM [activator, partial curve, poor fit]",
CCOC(=O)C1(C)CCCN1C(=O)c1ccc(C(=O)OC)cc1 (configuration not stated),inactive,
O=S(=O)(c1cccc2nonc12)N1CCCCCC1,"inconclusive: 11.2 µM [activator, partial curve, poor fit]",
COc1ccc2c(c1)c(=O)c(Br)c(C)n2Cc1ccccc1,"inconclusive: 17.8 µM [activator, single point]",
CC(C)(C)CC(=O)Nc1cc(S(=O)(=O)N2CCOCC2)ccc1N1CCCC1,"inconclusive: 14.1 µM [activator, single point]",
CCOC(=O)N1CCC(NC(=O)c2ccc3c(c2)N(Cc2cc(C)ccc2C)C(=O)c2ccccc2S3(=O)=O)CC1,inactive,
O=C(NCCNC(=O)c1ccc(Cl)cc1Cl)c1ccco1,inactive,
CC1CCC2C(=O)N(c3ccc(C(=O)NCc4ccccc4)cc3)C(=O)C2C1 (configuration not stated),"inconclusive: 28.2 µM [activator, single point]",
CC1(C)COC(Cn2c3ccccc3c3ccccc32)O1 (configuration not stated),"inconclusive: 20 µM [activator, single point]",
CCC(=O)c1ccc(N2CCN(C(=O)COc3ccc(F)cc3)CC2)c(F)c1,"inconclusive: 12.6 µM [activator, partial curve, poor fit]",
COc1ccc(C(C)(O)c2nc(-c3ccc4c(c3)OCO4)cs2)cc1 (configuration not stated),active: 12.6 µM,
